Target: T1, hCD3 antigen on Jurkat clone E6-1 cells (human)
T1 construct: whole, on cells; also called human CD3; hCD3 (Jurkat cell)
Assay: flow cytometry on Jurkat cells, FITC anti-human IgG Fc, median fluorescence, 4-parameter fit

EC50 [nM] | Binder
3.35 | ABC723 (ABC723_HER2/hCD3_603, anti-HER2 x anti-hCD3 BsAb in ABC603 format) (bispecific antibody, human IgG1, kappa) heavy 1: [about 120 residues not spelt out]ASTKGQVKPEAWLSHCPSPGPGHLQLVCHVSGFYPKPVWVMWMRGEQEQQGTQRGDILPSADGTWYLRATLEVAAGEAADLSCRVKHSSLEGQDIVLYWEGSDKTHTCPPCPAPELLGGPSVFLFPPKPKDTLMISRTPEVTCVVVDVSHEDPEVKFNWYVDGVEVHNAKTKPREEQYASTYRVVSVLTVLHQDWLNGKEYKCKVSNKALPAPIEKTISKAKGQPREPQVCTLPPSREEMTKNQVSLSCAVKGFYPSDIAVEWESNGQPENNYKTTPPVLDSDGSFFLVSKLTVDKSRWQQGNVFSCSVMHEALHNHYTQKSLSLSPGK light 1: [about 200 residues not spelt out] heavy 2: EVQLVESGGGLVQPGGSLRLSCAASGYSFTGYTMNWVRQAPGKGLEWVALINPYKGVSTYNQKFKDRFTISVDKSKNTAYLQMNSLRAEDTAVYYCARSGYYGDSDWYFDVWGQGTLVTVSSASTKGPSVFPLAPSSKSTSGGTAALGCLVKDYFPEPVTVSWNSGALTSGVHTFPAVLQSSGLYSLSSVVTVPSSSLGTQTYICNVNHKPSNTKVDKKV[human IgG1 Fc with changes not spelt out] light 2: AIQMTQSPSSLSASVGDRVTITCRASQDIRNYLNWYQQKPGKAPKLLIYYTSRLESGVPSRFSGSGSGTDYTLTISSLQPEDFATYYCQQGNTLPWTFGQGTKVEIKRTVAAPSVFIFPPSDEQLKSGTASVVCLLNNFYPREAKVQWKVDNALQSGNSQESVTEQDSKDSTYSLSSTLTLSKADYEKHKVYACEVTHQGLSSPVTKSFNRGEC
3.75 | ABC724 (ABC724_HER2/hCD3_605, anti-HER2 x anti-hCD3 BsAb) (bispecific antibody, human IgG1, kappa, also called ABC724_HER3/hCD3_605) heavy 1: [about 120 residues not spelt out]ASTKGQVKPEAWLSSCPSPGPGRLQLVCHVSGFYPKPVWVMWMRGEQEQQGTQLSEILPNANWTWYLRATLDVADGEAAGLSCRVKHSSLEGQDIILYWRGSGDKTHTCPPCPAPELLGGPSVFLFPPKPKDTLMISRTPEVTCVVVDVSHEDPEVKFNWYVDGVEVHNAKTKPREEQYASTYRVVSVLTVLHQDWLNGKEYKCKVSNKALPAPIEKTISKAKGQPREPQVCTLPPSREEMTKNQVSLSCAVKGFYPSDIAVEWESNGQPENNYKTTPPVLDSDGSFFLVSKLTVDKSRWQQGNVFSCSVMHEALHNHYTQKSLSLSPGK light 1: [about 200 residues not spelt out] heavy 2: EVQLVESGGGLVQPGGSLRLSCAASGYSFTGYTMNWVRQAPGKGLEWVALINPYKGVSTYNQKFKDRFTISVDKSKNTAYLQMNSLRAEDTAVYYCARSGYYGDSDWYFDVWGQGTLVTVSSASTKGPSVFPLAPSSKSTSGGTAALGCLVKDYFPEPVTVSWNSGALTSGVHTFPAVLQSSGLYSLSSVVTVPSSSLGTQTYICNVNHKPSNTKVDKKV[human IgG1 Fc with changes not spelt out] light 2: AIQMTQSPSSLSASVGDRVTITCRASQDIRNYLNWYQQKPGKAPKLLIYYTSRLESGVPSRFSGSGSGTDYTLTISSLQPEDFATYYCQQGNTLPWTFGQGTKVEIKRTVAAPSVFIFPPSDEQLKSGTASVVCLLNNFYPREAKVQWKVDNALQSGNSQESVTEQDSKDSTYSLSSTLTLSKADYEKHKVYACEVTHQGLSSPVTKSFNRGEC
